The supplement of paper PMC11417369
± gives the standard deviation of the averaged measurements. Some of the results follow.

System: PfAP2-EXP AP2 domain (GST-tagged)
Assay: gcPBM binding intensity (ln(normalized median fluorescence intensity)); higher = stronger DNA binding
Summary of the method: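 Binding intensity is the highest Masliner-normalised natural-log median intensity over replicate spots in either probe orientation. To obtain it, GST-tagged P. falciparum DNA-binding domains made in E. coli were incubated for 1 h on an Agilent 4 × 180k array of primer-extended double-stranded 36-bp intergenic genomic probes plus negative controls. Detection used Alexa488 anti-GST antibody with scanning at 488 nm.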

Row | Sequence | gcPBM binding intensity (ln)
1 | CAATGTTAACATATTACACACATATGTATATAGAAT [CACACA_site2732] | 8.88 ± 0.4
2 | TATATATGTATATATTTTATAAGTATGCAAGAAAAT [TGCATGCA_negctrl_site486] | 8.89 ± 0.4
3 | ATATTGGAATAAATTTGTACATATATATATTATTCA [XGTACX_site916] | 8.41 ± 0.32
4 | TTGCATCTACATTTATGTACATATCTTATGATAAAT [XGTACX_site2146] | 8.61 ± 0.3
5 | ACAATAATTTCCATCACACATATATTTATATATTAC [CACACA_site6003] | 8.62 ± 0.39
6 | ATACATATTCTTATTTGTACTTATTATAAAATGGTC [XGTACX_site6584] | 8.41 ± 0.29
7 | TAACTGATATATAAAACACACATCATAAAAATATAA [CACACA_site6499] | 8.42 ± 0.55
8 | ACACATATAAATAAAACATGCATATGTAAATATATA [TGCATGCA_site403] | 8.64 ± 0.48
9 | TATAATATAATATTTTGTACATATGATAAAAAAAAA [XGTACX_site6858] | 8.48 ± 0.48
10 | AATTATACTCACGTTACACACACACTATATATATAT [CACACA_site9375] | 9.89 ± 0.26
11 | TTGAACCTGATAAATACACACAATATAGATTTTTTT [CACACA_site7091] | 8.09 ± 0.35
12 | TCAAAATGTTACAAATTATGTTGGCTAAAATTTTAA [TGCATGCA_negctrl_site188] | 8.12 ± 0.4
13 | AAATATATCTTCTTTGCACACTTAAAGGGAAGTGAT [CACACA_site343] | 8.56 ± 0.33
14 | AGATATATTTTTTAAATTTAAAAATTATAAAATTTA [CACACA_negctrl_site533] | 8.07 ± 0.42
15 | GCATATAAAATAAATCGTACATGTAAAACATAATTA [XGTACX_site7077] | 8.46 ± 0.32
16 | GGCAGCAATTTAGTTACACACATATATAGGTATACA [CACACA_site76] | 8.69 ± 0.4
17 | GATAGAAAAAAATAATGTACACACACATATATGTTT [XGTACX_site392] | 8.57 ± 0.28
18 | TACACATACCCATACACACGCATAGAAACATACGAA [CACACA_site5212] | 8.51 ± 0.49
19 | TATTTTTATTTTAATTGTACTTTTTAATTAATAATA [XGTACX_site8302] | 8.6 ± 0.23

Row | Sequence | gcPBM binding intensity (ln)
20 | TTTCTTTTTTCTGTTATTATTATAAAACGATATTTA [TGCATGCA_negctrl_site167] | 8.61 ± 0.59
21 | AATATTTTATATGTAGTGCATTACTATAGGATTTAT [GTGCAC_site9424] | 8.82 ± 0.21
22 | GCTGAAAGGATAAAGGTGCATATTTTTTAAAAAATT [GTGCAC_site9487] | 8.86 ± 0.11
23 | TTTTTTTTTTTTATATGTACTAATAATCTTTTTTTT [XGTACX_site3552] | 8.31 ± 0.54
24 | ACAAAATAAACGGCTGCACACAAGAAGCACAATATT [CACACA_site3690] | 8.74 ± 0.42
25 | TGCTTATATCTTATAATATTTATACATCATAATAAG [CACACA_negctrl_site629] | 8.36 ± 0.42
26 | TGTGTCAAATAATTAATGTCATATATATTTTGTATA [CACACA_negctrl_site1479] | 8.22 ± 0.33
27 | TATATATATATATATATACACACTATATAATTCAAA [CACACA_site1023] | 10.2 ± 0.44
28 | TTTTTTTTTTTTTAGAGTACACACTTTTTTACATTT [XGTACX_site8159] | 8.34 ± 0.43
29 | TTAACATAGATATATACACACCAATGATGGCATTTA [CACACA_site6840] | 8.22 ± 0.37
30 | AAATAAAAGTTCACCTGTACACACATATATATATGT [XGTACX_site3513] | 8.84 ± 0.53
31 | CATAAAATATAAAACACACACACATATATTTATATA [CACACA_site6247] | 8.7 ± 0.54
32 | TTGTGATTATTATATTGTACAATAAGTATTAAAGAA [XGTACX_site2753] | 8.84 ± 0.085
33 | GCAAATCATGCTATGGTGCATATGTAAGATGAGCAT | 9.03 ± 0.31
34 | TTCCTCTTAAAATATACACACTGATTTAAGAAAAAA [CACACA_site5770] | 8.16 ± 0.34
35 | ATATATAATACTACAGTGCAATATATTATATTTGTT | 8.615 ± 0.035
36 | ATACTAAATATAAATTGTACTTTATTTATATTGAGA [XGTACX_site8699] | 8.38 ± 0.38
37 | AGAATACATCTATGAACACACAGAGTTTTAAAAAAT [CACACA_site5514] | 8.46 ± 0.45
38 | ATATTATTTTAAAGTACACACATATATTGATATATA [CACACA_site7153] | 8.48 ± 0.26

Row | Sequence | gcPBM binding intensity (ln)
39 | TTTTTCATTTAACAGAAGGGAGATAAAAAAAAAAAA [TGCATGCA_negctrl_site261] | 8.56 ± 0.53
40 | AATAATTATAAAAAATGTACAAAAAAAAAAAAAAAA [XGTACX_site3681] | 8.18 ± 0.39
41 | GTATGTATGTATGTATGTACGTATGTATGTATATAT [XGTACX_site3369] | 9.27 ± 0.2
42 | AAAATAATATTTAATACACACATAATTATAATATAA [CACACA_site782] | 8.48 ± 0.32
43 | ATTTTTAATTGAATCACACATTTCCTTTCTTTTGTG [CACACA_site4438] | 8.67 ± 0.49
44 | ACCTTTTGGATTATATGTACATATATATATATATAT [XGTACX_site2687] | 10.2 ± 0.13
45 | ATTAAAAATAAGAAGAGTACATATAATATATATACA [XGTACX_site3092] | 8.47 ± 0.36
46 | TTAAAAAGAAAGTTCACACACATATATATGACGGAA [CACACA_site2602] | 8.93 ± 0.45
47 | TTTATATTTATCCAAAGTACTTTTTAAAAACATACC [XGTACX_site4518] | 8.53 ± 0.43
48 | ATGAACATTTATAAATGTACTCACATATATATATTT [XGTACX_site6692] | 8.71 ± 0.42
49 | AACACTTTAATTTATGCACACATATGGAACAACAGC [CACACA_site8241] | 8.87 ± 0.23
50 | AACATTTTTAGATTATATTATTAAATAAGTAACTGC [XGTACX_negctrl_site326] | 8.29 ± 0.45
51 | AGATATATATTTTATTGTACACATTAAAGTATAAAA [XGTACX_site7194] | 8.36 ± 0.23
52 | TATGTATTTATATATACACACTTCTGTGATACGAAA [CACACA_site5128] | 8.46 ± 0.55
53 | AAGTTTTTTATTTTTTGTACATAAAAAATAATAATT [XGTACX_site1755] | 8.29 ± 0.3
54 | TTTTTGTTTTTTTTTTGTACATATATATAAAAAATA [XGTACX_site1214] | 8.62 ± 0.38
55 | TTTTTTTTAATATTTTACATTGTCTGTTAACAAATA [CACACA_negctrl_site599] | 8.54 ± 0.49
56 | GGGAGGATAGTTCACAGTACCCAGTAACTCTACGGA [XGTACX_site2558] | 8.65 ± 0.52
